{"source": "PubChem BioAssay (Tox21)", "key": {"[1]": {"assay": "A CellTox Green Cytotoxicity Assay to monitor cytotoxicity in HepG2 cells - 40 hour (AID 1224879); further: nearly all actives have a fitted effect of over 40% in size; further: potency means the concentration at half of the fitted maximal effect", "how_it_was_run": "(§1)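 Read-out is fluorescence of a cyanine dye excluded from live cells that stains DNA of dead HepG2 cells, with signal proportional to cytotoxicity. Plates were read at 0, 8, 16, 24, 32 and 40 h after compound addition.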"}, "[2]": {"assay": "qHTS RealTime-Glo MT Cell Viability Assay in HEK293 cells - 0 hour (AID 1224880)", "how_it_was_run": "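Cells were seeded together with NanoLuc luciferase and a prosubstrate that viable cells reduce to a luciferase substrate. After a 5 h incubation at 37 C/5% CO2, compounds were added and luminescence was measured repeatedly during 40 h of treatment.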"}, "[3]": {"assay": "A CellTox Green Cytotoxicity Assay to monitor cytotoxicity in HEK293 cells - 8 hour (AID 1224884)", "how_it_was_run": "(§2)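 Nonlytic real-time cytotoxicity: HEK293 + CellTox Green reagent plated, 5 h preincubation, pintool compound addition (23 nL in DMSO), 37 C for 40 h, fluorescence measured at successive time points.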"}, "[4]": {"assay": "A CellTox Green Cytotoxicity Assay to monitor cytotoxicity in HepG2 cells - 0 hour (AID 1224882)", "how_it_was_run": "as §1"}, "[5]": {"assay": "A CellTox Green Cytotoxicity Assay to monitor cytotoxicity in HEK293 cells - 32 hour (AID 1224881)", "how_it_was_run": "as §2"}, "[6]": {"assay": "A CellTox Green Cytotoxicity Assay to monitor cytotoxicity in HepG2 cells - 32 hour (AID 1224883)", "how_it_was_run": "as §1"}}, "note": "“And” between values parts separate entries of the source, which are not always exact repeats. Equal values may be shown once. The inconclusive results got no clear call from the source; some entries with a clear call stand among them for comparison. For some assays here: No potency is given beside an inconclusive call; the fits are too rough. The source made the active and inactive calls. The call rests on the fitted dose curve; in most records, active means well fitted curve in the direction sought with a large enough effect in the repeat runs; inconclusive means weak or mixed curves; inactive means no such curve, though single readings can be large; an effect the other way counts as inactive or inconclusive. Tags describe the fitted curve by direction and shape."}
{"smiles": "CN(C)CCc1c[nH]c2ccc(O)cc12", "values": [{"measurement": "Potency", "setting": "[1]", "value": "inconclusive [activator, partial curve]"}]}
{"smiles": "O=C(Nc1ccccc1)Nc1ccnc(Cl)c1", "values": [{"measurement": "Potency", "setting": "[1]", "value": "inconclusive [activator, single point]"}]}
{"smiles": "CCN1CCC2(CC1)COc1cc3c(cc12)N(C(=O)c1ccc(-c2ccc(-c4nnc(C)o4)cc2C)cc1)CC3", "values": [{"measurement": "Potency", "setting": "[2]", "value": "active: 25.4 µM"}, {"measurement": "Potency", "setting": "[3]", "value": "active: 50.7 µM"}]}
{"smiles": "CCC(C)(C)C(=O)OC1=C(c2ccc(Cl)cc2Cl)C(=O)OC12CCCCC2", "values": [{"measurement": "Potency", "setting": "[2]", "value": "inconclusive [falling, partial curve]"}]}
{"smiles": "CCc1cccc(CC)c1N(COC)C(=O)CCl", "values": [{"measurement": "Potency", "setting": "[1]", "value": "inconclusive [activator, single point]"}, {"measurement": "Potency", "setting": "[4]", "value": "inactive"}]}
{"smiles": "O=c1oc2ccccc2c(O)c1C(CC(O)c1ccc(-c2ccc(Br)cc2)cc1)c1ccccc1", "note": "(stereo unspecified)", "values": [{"measurement": "Potency", "setting": "[2]", "value": "active: 18.4 µM and active: 12 µM"}, {"measurement": "Potency", "setting": "[3]", "value": "inconclusive [activator, single point]"}]}
{"smiles": "Clc1ccc(C(Cl)(Cl)Cl)c(Cl)c1", "values": [{"measurement": "Potency", "setting": "[1]", "value": "inconclusive [activator, single point]"}, {"measurement": "Potency", "setting": "[5]", "value": "inconclusive [activator, single point]"}, {"measurement": "Potency", "setting": "[6]", "value": "inconclusive [activator, single point]"}, {"measurement": "Potency", "setting": "[3]", "value": "inconclusive [activator, single point]"}]}
{"smiles": "N#Cc1c(Cl)c(Cl)c(Cl)c(C#N)c1Cl", "values": [{"measurement": "Potency", "setting": "[1]", "value": "active: 19.1 µM and active: 2.45 µM"}, {"measurement": "Potency", "setting": "[3]", "value": "inconclusive [activator, partial curve, poor fit]"}]}
{"smiles": "CC(=O)C(Cl)(Cl)Cl", "values": [{"measurement": "Potency", "setting": "[2]", "value": "inconclusive [falling, partial curve]"}]}
{"smiles": "CN(C)c1ccc(N)cc1", "values": [{"measurement": "Potency", "setting": "[5]", "value": "inconclusive [activator, single point]"}]}
{"smiles": "O=[N+]([O-])c1ccc(Nc2ccccc2)cc1", "values": [{"measurement": "Potency", "setting": "[1]", "value": "inconclusive [activator, single point]"}]}
{"smiles": "O=C(NC(=O)c1c(F)cccc1F)Nc1cc(Cl)c(OC(F)(F)C(F)F)c(Cl)c1", "values": [{"measurement": "Potency", "setting": "[1]", "value": "inactive"}, {"measurement": "Potency", "setting": "[3]", "value": "inactive"}]}
{"smiles": "C[C@]12Cc3cn[nH]c3C[C@@H]1CC[C@@H]1[C@@H]2CC[C@@]2(C)[C@H]1CC[C@]2(C)O", "values": [{"measurement": "Potency", "setting": "[1]", "value": "inconclusive [activator, single point]"}, {"measurement": "Potency", "setting": "[6]", "value": "inconclusive [activator, single point]"}]}
{"smiles": "COC1=CC(=O)O[C@@H](CCc2ccccc2)C1", "values": [{"measurement": "Potency", "setting": "[2]", "value": "inconclusive [falling, single point]"}]}
{"smiles": "CC1(C)C(C(=O)OC(C#N)c2cccc(Oc3ccccc3)c2)C1(C)C", "note": "(stereo unspecified)", "values": [{"measurement": "Potency", "setting": "[1]", "value": "inconclusive [activator, partial curve, poor fit]"}]}
{"smiles": "CC(C)(O)c1cnn2c(-c3ccc(F)c(-c4c(F)cccc4C#N)c3)cnc2n1", "values": [{"measurement": "Potency", "setting": "[2]", "value": "inconclusive [falling, full curve]"}, {"measurement": "Potency", "setting": "[5]", "value": "inconclusive [activator, single point]"}]}
